In PubChem BioAssay AID686971 (National Center for Advancing Translational Sciences (NCATS), 2013):
Several values for one entry are separate records, joined by “and”; a condition that tells them apart may be missing. Identical values can stand only once. About 7,500 (2.1%) of roughly 360,000 compounds were called active. The shares of active, inactive and inconclusive entries below differ from those in the screen. Calls follow the shape of the dose curve; as a rule, active = well fitted cell-killing curve with a large enough effect; inconclusive = small, poorly fitted or top-dose-only effect, or effect the other way, or another doubt; inactive = no such curve, though single readings can be large or run the other way. Where the call is inconclusive, the potency comes from a doubtful curve fit.

Assay: qHTS for induction of synthetic lethality in tumor cells producing 2HG: qHTS for the HT-1080-IDH1KD cell line;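 as to activity, negative = toxicity: 0% = DMSO wells and -100% = cell-free medium wells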
Conditions: HT-1080 IDH1 knockdown viability, ATP luminescence, 48 h; activity, negative = toxicity: at 46.1 µM (top of the series) unless noted
How it was run: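 CellTiter-Glo luminescence after 48 h compound exposure at 37 degrees C of IDH1-knockdown HT-1080 cells in 5% FBS RPMI. %Activity scaled between DMSO wells and cell-free media wells, with curves fitted and assigned curve classes.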
Potency is read from the fitted curve at half-maximal effect; tags tell the direction and shape of the fitted curve.

SMILES | Potency | activity, negative = toxicity
COc1ccccc1Cn1c(=S)[nH]c2cc(C(=O)NCCCN3CCOCC3)ccc2c1=O | inconclusive: 23.1 µM [cytotoxic, single point] | –
S=c1[nH]nc(-c2ccccc2)n1/N=C/c1ccc(-c2ccccc2Cl)o1 | inconclusive: 8.2 µM [cytotoxic, partial curve] | –
CCNC(=S)N/N=C/c1cn(Cc2ccccc2F)c2ccccc12 | – | inactive: 2.32%
O=C(N/N=C/c1ccc(O)cc1O)C(=O)N/N=C/c1ccc(O)cc1O | inconclusive: 29.1 µM [cytotoxic, single point] | –
Cc1c(NCc2cc(Cl)cc(Cl)c2O)c(=O)n(-c2ccccc2)n1C | inconclusive: 11.2 µM [cytotoxic, partial curve] | –
CCOC(=O)C1CCN(C(=O)c2cc3cc(C)ccc3[nH]2)CC1 | – | inactive: 6.7%
COc1cc(NC(=O)CCc2c(C)noc2C)c(C(=O)O)cc1OC | – | inactive: -1.31%
Cc1ccc(/C(N)=N/OC(=O)N2CCOCC2)cc1 | active: 17.8 µM | –
COC(=O)/C(=C\Nc1ccc(Cl)cc1Cl)NC(=O)c1ccc(OC)cc1 | active: 1.64 µM | –
NC(=O)c1cccc(-c2ccnc3c2CC(C(=O)NCc2ccccc2)O3)c1 (configuration not stated) | inconclusive: 2.06 µM [cytotoxic, full curve] | –
CC(=O)NC(c1ccc(Cl)cc1Cl)c1ccc2cccnc2c1O (configuration not stated) | inconclusive: 2.06 µM [cytotoxic, partial curve, poor fit] | –
CC(=O)Nc1cccc(-c2ccnc3c2CC(C)(C(=O)Nc2cccc(C(C)=O)c2)O3)c1 (configuration not stated) | active: 14.6 µM | –
C(=C\c1ccccc1)/C=N/Nc1nc2ccccc2s1 | inconclusive: 17.8 µM [cytotoxic, single point] | –
COC(=O)C1C(OC)=CC(=O)C2CCCCC21 (configuration not stated) | – | inactive: 14.1%
O=C(NS(=O)(=O)c1ccccc1)c1cccc(Br)c1 | – | inactive: 9.72%
OCCC1CN(Cc2ccc(Oc3ncccn3)cc2)CCN1C1CCCCC1 (configuration not stated) | – | inactive: 10.4%
CC(=O)Nc1ccc(SC[C@H](Cc2ccccc2)N2CC[C@@H](C(C)(C)C)CCC2=O)cc1 | active: 16.4 µM | –
Cc1cccc(NC(=O)C[n+]2ccc(N(C)C)cc2)c1 | inconclusive: 29.1 µM [cytotoxic, single point] | –
S=C1NCc2cncnc2N1 | – | inactive: 26.1%
Cc1nc2cc(N3CCCCC3)c(NC(=O)c3ccncc3)cc2c(=O)n1Cc1ccccc1 | active: 5.17 µM | –
O=C(Cc1cccs1)Nc1cccc(-c2nc3cc4ccccc4cc3[nH]2)c1 | inconclusive: 18.4 µM [cytotoxic, single point] | –
O=c1[nH]cc(O)c(=O)[nH]1 | inconclusive: 29.1 µM [cytotoxic, single point] | –
CCOC(=O)C1=C(N)n2c(s/c(=C\c3cccs3)c2=O)=C(C(=O)OCC)C1c1cccs1 (configuration not stated) | active: 2.59 µM | –
COc1cc2ccnc(C=NO)c2cc1OC | inconclusive: 29.1 µM [cytotoxic, single point] | –

SMILES | Potency | activity, negative = toxicity
FC(F)Oc1ccc(-c2csc(NNC3=NCCCCC3)n2)cc1 | inconclusive: 8.2 µM [cytotoxic, partial curve] | –
CCNC(=O)C1(C)CCN(C(=O)c2cccc(C#N)c2)C1 (configuration not stated) | – | inactive: 21.2%
CN(C(=O)COC(=O)c1cn(-c2ccccc2)nc1-c1ccccc1)C1CCS(=O)(=O)C1 (configuration not stated) | – | inactive: -0.834%
CCn1c(SCC(=O)c2ccc(C)cc2)nnc1-c1ccncc1 | – | inactive: 2.09%
CCNc1nc(CN2CCCCC2)nc2scc(-c3ccccc3)c12 | inconclusive: 13 µM [cytotoxic, partial curve] | –
COc1ccc(-c2ccc(CN3C(CC(C)C)C(=O)N(Cc4cn(Cc5ccco5)nn4)CCS3(=O)=O)cc2)cc1 (configuration not stated) | inconclusive: 20.6 µM [cytotoxic, single point] | –
CCCCN(CC)CCNC(=O)c1cc2c(-c3ccc(Cl)cc3)nn(C)c2s1 | active: 20.6 µM | –
O=C(Nc1ccc(Nc2ccccc2)cc1)c1ccco1 | inconclusive: 16.4 µM [cytotoxic, single point] | –
COc1ccccc1NC(=O)Nc1nnc(Cc2ccccc2F)s1 | inconclusive: 16.4 µM [cytotoxic, partial curve, poor fit] | –
COc1ccccc1/C=N/NC(=O)CSc1ccc2ccccc2n1 | inconclusive: 16.4 µM [cytotoxic, partial curve] | –
CCc1ccc2[nH]c(C(=O)Nc3ccc4c(c3)OCO4)cc2c1 | inconclusive: 29.1 µM [cytotoxic, single point] | –
CCCn1c(SCC(=O)Nc2cc(C)on2)n[nH]c1=O | – | inactive: -0.42%
Cc1cc(NC(=O)CN2C(=O)NC3(CCCCCC3)C2=O)ccc1Br | inconclusive: 18.4 µM [cytotoxic, partial curve] | –
O=C(/C=C/C(Cl)(Cl)Cl)Nc1ccc(Cl)cc1 | inconclusive: 29.1 µM [cytotoxic, single point] | –
C=CCc1ccccc1OCC(O)CN1CCN(c2ccc(C)cc2)CC1 (configuration not stated) | inconclusive: 35.5 µM [cytotoxic, single point] | –
COCCOC(=O)c1[nH]c2c(c1C)C(=O)CC(c1cc(OC)ccc1OC)C2 (configuration not stated) | active: 11.6 µM | –
C/C(N)=C(/C#N)C(=O)COC(=O)c1cc(C)n(-c2ccc(F)cc2)c1C | inconclusive: 32.6 µM [cytotoxic, single point] and inconclusive: 29.1 µM [cytotoxic, single point] | –
O=S(=O)(c1ccccc1)n1cc(-c2cccc3nccn23)c2ccccc21 | inconclusive: 18.4 µM [cytotoxic, partial curve, poor fit] | –
N#CC1=C(N)Oc2c(ccc3cccnc23)C1c1ccncc1 (configuration not stated) | inconclusive: 29.1 µM [cytotoxic, single point] | –
CCOc1cc(Br)cc(/C=C2\SC(=Nc3ccccc3)NC2=O)c1O | – | inactive: -16.7%
NC1=NC(c2cccc(Cl)c2)N(CCc2ccc(F)cc2)C(N)=N1 (configuration not stated) | inconclusive: 7.31 µM [cytotoxic, partial curve] | –
Cc1cccc(N2CCN(S(=O)(=O)c3c(C)[nH]c(C)c3C(=O)N3CCCC3)CC2)c1C | – | inactive: -4.62%
O=[N+]([O-])c1ccc(N2CCN(Cc3ccccc3)CC2)c2c1no[n+]2[O-] | active: 14.6 µM | –
COc1cc(/C=C(\C#N)c2nc3ccc(C)cc3[nH]2)cc([N+](=O)[O-])c1O | – | inactive: -6.74%

SMILES | Potency | activity, negative = toxicity
CCc1nc(CN2CCCC(C(=O)c3ccc4c5c(cccc35)CC4)C2)c(C)[nH]1 (configuration not stated) | active: 16.4 µM | –
CC(C)C1Oc2ccccc2N(CC(=O)NCCCN2C(C)CCCC2C)C1=O (configuration not stated) | – | inactive: 15.7%
COc1ccc(NC(=O)c2sc3nc(N4CCOCC4)c4c(c3c2N)CC(C)(C)OC4)c(OC)c1 | – | inconclusive: 30%
O=C(NC(=C(Cl)Cl)S(=O)(=O)c1ccc(Cl)cc1)c1ccccc1 | inconclusive: 25.9 µM [cytotoxic, single point] | –
COc1ccccc1N(C(C)=O)C1=C(Cl)C(=O)c2ccccc2C1=O | active: 7.31 µM | –
CCOC(=O)c1ccccc1NC(=O)Cn1c(-c2nonc2N)nc2ccccc21 | active: 0.92 µM | –
COc1ccc(CCNC(=O)c2cc(CC(C)C)on2)cc1OC | – | inactive: -1.19%
CCCc1ccc(-c2c(C)sc(NC(=O)c3ccnn3C)c2C#N)cc1 | inconclusive: 18.4 µM [cytotoxic, partial curve] | –
O=C(NCC1CC1)c1csc([C@@H]2O[C@H](CO)[C@H](O)[C@H](O)[C@H]2O)n1 | inconclusive: 25.9 µM [rising, single point] | –
COc1ccc(-c2nc(Cn3c(SCc4ccc(F)cc4)nc4ccncc43)c(C)o2)cc1OC | inconclusive: 23.1 µM [cytotoxic, single point] | –
Cc1ccc(/C=N/NC(=O)CCCOc2ccc(Cl)cc2Cl)cc1[N+](=O)[O-] | inconclusive: 29.1 µM [cytotoxic, single point] | –
Cc1ccc(N/C(N)=N/c2nc(CSc3ccccn3)cc(=O)[nH]2)c(C)c1 | inconclusive: 29.1 µM [rising, single point] | –
CC1(C)Cc2c(sc3ncn4nc(CCC(=O)O)c(=O)nc4c23)CO1 | – | inactive: -0.48%
O=C(NC1CCCCC1)C(c1cccnc1)N(C(=O)CCl)c1cccc(Cl)c1 (configuration not stated) | active: 1.84 µM | –
COc1ccc(NC(=O)C2Cc3c(-c4ccc(Cl)cc4)ccnc3O2)cn1 (configuration not stated) | inconclusive: 18.4 µM [cytotoxic, partial curve] | –
O=C(Oc1cccc2cccnc12)c1cccc(N2C(=O)C3C4CCC(C4)C3C2=O)c1 (configuration not stated) | inconclusive: 23.1 µM [cytotoxic, single point] | –
CCCCn1nnnc1C(c1cc2ccccc2o1)N1CCN(C(=O)OCC)CC1 (configuration not stated) | – | inactive: 2.8%
Nc1nc(-c2ccccc2)cc(-c2ccccc2O)n1 | – | inconclusive: 0%
O=C1N[C@@H](Cc2ccccc2)C(=O)N2[C@H]1C[C@]1(Br)c3ccccc3N(S(=O)(=O)c3ccc(F)cc3)[C@H]21 | – | inactive: 1.9%
CCc1ccc(-c2nc(CN3CCC(C(=O)NCc4ccc(F)cc4)CC3)c(C)o2)cc1 | – | inactive: 2.7%
COC(=O)c1ccc(CC2(C)C(=O)Nc3ccc(-c4cccc(C(F)(F)F)c4)cc32)o1 (configuration not stated) | inconclusive: 29.1 µM [cytotoxic, single point] | –
Cc1cc(O)c(NC(=S)NC(=O)c2ccc(-c3ccc(Cl)cc3)o2)cc1C | inconclusive: 29.1 µM [cytotoxic, single point] | –
Cc1c(Cc2ccccc2)sc(NC(=O)Cc2ccccc2)c1C(N)=O | inconclusive: 29.1 µM [cytotoxic, single point] | –
CSc1cccc(-n2cc(-c3ccc4c(c3)OCO4)[nH]c2=O)c1 | inconclusive: 14.6 µM [cytotoxic, partial curve] | –
